Test results published in article PMC4336329 (PLoS ONE, 2015).
About 2,200 (0.71%) of roughly 310,000 compounds showed an effect of 50% or more. The effect is printed as a negative number. The list shows a part of the results.

molecular target: human ether-à-go-go-related gene (hERG) potassium channel (human, UniProt Q12809); assay: primary screen, population patch clamp on CHO cells stably expressing hERG
Sequence (Q12809 whole entry, looked up): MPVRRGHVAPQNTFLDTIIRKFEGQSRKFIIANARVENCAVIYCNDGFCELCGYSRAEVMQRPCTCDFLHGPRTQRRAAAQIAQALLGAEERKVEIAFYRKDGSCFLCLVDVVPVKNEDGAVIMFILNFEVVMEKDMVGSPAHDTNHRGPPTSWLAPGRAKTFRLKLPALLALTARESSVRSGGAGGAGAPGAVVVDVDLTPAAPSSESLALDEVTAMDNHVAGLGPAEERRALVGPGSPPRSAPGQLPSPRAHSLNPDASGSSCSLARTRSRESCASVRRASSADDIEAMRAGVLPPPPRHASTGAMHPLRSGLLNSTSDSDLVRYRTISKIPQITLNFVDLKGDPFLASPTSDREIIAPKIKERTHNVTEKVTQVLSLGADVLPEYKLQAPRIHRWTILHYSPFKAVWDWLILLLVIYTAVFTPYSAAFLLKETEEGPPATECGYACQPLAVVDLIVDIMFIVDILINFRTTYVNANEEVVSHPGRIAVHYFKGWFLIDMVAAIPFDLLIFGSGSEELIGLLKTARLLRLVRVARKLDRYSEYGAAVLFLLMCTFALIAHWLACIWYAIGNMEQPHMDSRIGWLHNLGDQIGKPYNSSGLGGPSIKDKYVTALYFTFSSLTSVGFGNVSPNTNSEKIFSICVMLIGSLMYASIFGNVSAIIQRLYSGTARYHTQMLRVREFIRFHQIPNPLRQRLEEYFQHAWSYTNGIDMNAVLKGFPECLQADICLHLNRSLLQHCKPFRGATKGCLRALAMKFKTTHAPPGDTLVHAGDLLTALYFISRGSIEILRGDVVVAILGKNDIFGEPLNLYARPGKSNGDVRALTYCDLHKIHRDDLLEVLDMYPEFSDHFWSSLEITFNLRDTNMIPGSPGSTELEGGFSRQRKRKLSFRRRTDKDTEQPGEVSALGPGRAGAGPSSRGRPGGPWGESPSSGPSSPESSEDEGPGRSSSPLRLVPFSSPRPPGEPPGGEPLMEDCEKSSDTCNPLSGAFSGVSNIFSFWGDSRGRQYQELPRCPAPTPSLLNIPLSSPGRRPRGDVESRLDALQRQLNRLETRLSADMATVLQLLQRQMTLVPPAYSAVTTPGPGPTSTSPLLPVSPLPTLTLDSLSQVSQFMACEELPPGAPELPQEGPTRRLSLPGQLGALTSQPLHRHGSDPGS

Point of comparison: `NC(=O)COc1cc2oc(=O)c3c(c2cc1Cl)CCCC3`, “hERG current change (%, negative = inhibition) at 1uM” value 16.9%. Against it:
- Cc1nc(-c2ccc(Cl)cc2)sc1C1(C)CC(c2ccc([N+](=O)[O-])cc2)=NO1 (centres unmarked) — lower, 14.9%
- CN(CC(=O)Nc1ccc(N2CCOCC2)cc1)C(=O)CCNC(=O)c1ccccc1Cl — higher, 18.1%
- COC(=O)c1sccc1NC(=O)c1ccc(Cl)cc1 — lower, 16.7%
- CC1(C)CC(=O)C2=C(C1)N(c1ccccc1)C(=O)CC2c1ccc(O)cc1 (centres unmarked) — lower, 9.62%
- CCOC(=O)NC(=O)/C(N=Nc1ccc(C(F)(F)F)cc1)=C(\C)O — lower, 8.88%
- O=C(O)/C=C/C(=O)NCCNc1ncc(C(F)(F)F)cc1Cl — lower, 13.2%
- COc1ccc(Br)cc1CNC(=O)CN1C(=O)C(c2ccccc2)Oc2cccnc21 (centres unmarked) — lower, 15.3%
- CC(=O)c1nnn(-c2c(F)cccc2F)c1C — lower, 12.1%
- C/C(=N\Nc1ccc(C(F)(F)F)cc1[N+](=O)[O-])C1CC1 — lower, 0.694%
- CC1(C)CC(=O)C(C=NCCc2ccc(S(N)(=O)=O)cc2)=C(O)C1 — lower, 4.73%
- CCOC(=O)C1(Cc2ccc(OC)cc2)CCN(C(=O)CCn2cccn2)CC1 — lower, 7.89%
- CCOC(=O)c1c(C)n(C)c2ccc(OC)c(NC(=O)CN3CCN(Cc4ccccc4)CC3)c12 — lower, 8.02%
- CCCNC(=O)c1ccc(COc2ccc(CCC)cc2OC)o1 — lower, -1.86%
- C(#CCN1CCC(Cc2ccccc2)CC1)COCCOCc1ccccc1 — lower, 9.32%
- O=[N+]([O-])c1ccccc1/C=N/n1c(C(F)(F)F)n[nH]c1=S — lower, 8.32%
- Cn1cc(/C=C/C(=O)N2CCCC(C(=O)c3ccc(C(F)(F)F)cc3)C2)cn1 (centres unmarked) — lower, 7.37%
- CC(C)(C)OC(=O)N1CCC(CC2CC(c3cccc(Br)c3)=NO2)(C(=O)O)CC1 (centres unmarked) — lower, 7%
- COc1ccccc1Nc1nc(-c2sc(N)nc2C)cs1 — lower, 8.63%
- COCCCNC(=O)c1cc(-c2cccnc2)nc2ccccc12 — higher, 24.4%
- O=C(O)CNC(=O)c1ccc(NC(=O)/C(=C/c2ccccc2)NC(=O)c2ccccc2)cc1 — higher, 25.2%
- COC(=O)c1cn(CC(=O)Nc2ccc(OC)cc2)c2ccccc12 — lower, 14.4%
- CCn1ncc(S(=O)(=O)Nc2cc(Cl)ccc2C)c1C — lower, 0.623%
- CN1C(=O)c2ccc(NC(=O)c3ccc(Cl)cc3Cl)cc2C1=O — lower, 11.5%
- O=C(NC1CCCCC1)c1cccnc1Sc1ccccc1 — lower, 13.3%
- COc1cc(NC(=O)c2ccc3c(c2)OCCO3)ccc1NC(=O)c1ccco1 — lower, 10.5%
- CC(C)CNC(=O)C(=O)NCC1OCCCN1S(=O)(=O)c1cccs1 (centres unmarked) — lower, 14.3%
- CNC(=O)COC(=O)c1ccccc1Oc1ccccc1 — lower, 6.93%
- COc1ccc(OC)c(S(=O)(=O)Nc2cccc3ccccc23)c1 — lower, 12.8%
- O=C(CN1CCOc2ccccc21)NCc1ccc(Cl)cc1 — lower, -2%
- Cc1ccc(OCCC(=O)OCC(=O)N2c3ccccc3NC(=O)C2(C)C)cc1 — lower, -6.36%
- O=C(c1cnn2c(C(F)F)cc(-c3ccccc3)nc12)N1CCN(Cc2ccc3c(c2)OCO3)CC1 — lower, 11.1%
- OC(CC1CC12c1ccccc1-c1ncccc12)(c1ccccc1)c1ccccc1 (centres unmarked) — lower, -3.31%
- CN(C(=O)COc1ccc2ccc(=O)oc2c1)C1CCS(=O)(=O)C1 (centres unmarked) — higher, 38.4%
- COc1ccc(-c2nc3ccccc3s2)cc1NC(C)=O — lower, 3.12%
- CCOC(=O)Cc1csc(NS(=O)(=O)c2cccc([N+](=O)[O-])c2)n1 — lower, 16.3%
- O=C(O)Cc1ccc(C(=O)CSc2ccccc2)s1 — lower, 16.3%
- O=C(CN1C(=O)NC2(CCCC2)C1=O)OCCOc1cccc(Br)c1 — lower, 9.33%
- S=C(c1ccc2c(c1)OCO2)N1CCOCC1 — lower, 11.9%
- CC(=O)N1CCC(C(=O)N2CCN(S(=O)(=O)c3cccs3)CC2)CC1 — lower, 6.09%
- CCCOc1ccc(C(=O)CCC(=O)OCC(=O)Nc2ccc(OCC)cc2)cc1 — lower, 14.3%
- Cc1ccc(CN2CCN(/N=C/c3cc(Br)cc(Br)c3O)CC2)c(C)c1 — lower, 5.62%
- CC(C)c1cc(C(=O)N/N=C/c2ccco2)n[nH]1 — lower, 1.94%
- CCOC(=O)CCn1cnc2ccc([N+](=O)[O-])cc2c1=O — lower, -6.65%
- CC(C)CCNC(=O)c1c(CSc2ccccc2)noc1C(=O)NCc1ccccc1 — lower, 1.86%
- Cc1cccc(NCC(=O)N/N=C\c2cccc(Oc3ccccc3)c2)c1 — lower, 9.78%
- COC(=O)C1=C(C)N(c2ccc(C)cc2)/C(=C/c2cccs2)C1=O — lower, 15%
- CCOC(=O)C1CCCN(C(=O)C(=O)Nc2ccc3nc4n(c(=O)c3c2)CCCCC4)C1 (centres unmarked) — lower, 12.7%
- CCOC(=O)c1c(C)cc(=O)oc1C — lower, 4.19%
- COc1ccc(CNC(=O)COC(=O)c2ccc(Br)cc2)cc1 — lower, 3.16%
- O=C(N/N=C\C=C\c1ccc2c(c1)OCO2)c1ccc(F)cc1 — lower, 15.6%
- COc1ccc(C(C)=O)cc1CSc1nc(C)cc(C)n1 — lower, 10.8%
- O=c1c2c(nc3c(-c4cccc(Br)c4)c[nH]n13)CCCC2 — lower, 4.62%
- C/C(=N\NC(=O)Cc1c(C)[nH][nH]c1=O)c1ccc(Cl)c(Cl)c1 — lower, 12.3%
- CCOc1ccc(C2=Nc3ccccc3C(c3ccc(N4CCOCC4)cc3)=NN2)cc1 — lower, 8.07%
- Cc1onc(-c2ccccc2Cl)c1C(=O)Nc1cccc2nsnc12 — lower, 8.96%
- CC1CCN(C(=O)COC(=O)c2cccc(NS(=O)(=O)c3ccccc3)c2)CC1 — lower, 8.15%
- COC(=O)[C@]1(C)N[C@H](c2ccc(-c3ccc(F)cc3)cc2)[C@@H]2C(=O)N(C)C(=O)[C@@H]21.O=C(O)C(F)(F)F — lower, 4.62%
- Cc1ccc(C2/C(=C(\O)c3ccc4c(c3)OCCO4)C(=O)C(=O)N2Cc2cccnc2)cc1 (centres unmarked) — lower, 9.79%
- O=C(COc1ccccc1)NCCc1cn2ccsc2n1 — lower, 12.3%
- Cc1cccc(-c2nnc(SCC(=O)NC3CC3)n2C)c1 — lower, 13.3%
- CC(C)c1ccc(NC(=O)[C@@H](NC(=O)N2CC(=O)Nc3ccccc32)C(C)C)cc1 — lower, 7.02%
- CC(=O)Nc1ccc(S(=O)(=O)Nc2ccc(Cl)nn2)cc1 — lower, 8.13%
- Cc1c(C)n(Cc2ccc(Cl)cc2)c2ccc(C(=O)NCCCN3CCOCC3)cc12 — lower, 13.9%
- O=C(/C=C/Nc1ccccc1F)c1ccc(Br)cc1 — lower, 10.1%
- O=C(NC1CCCCCC1)c1cc(S(=O)(=O)N2CCOCC2)ccc1N1CCCCC1 — lower, -7.91%
- CC(C)(C)OC(=O)N1CCC(c2c(C(=O)N3CCN(C(=O)c4ccco4)CC3)cnn2-c2cccc(Cl)c2)CC1 — lower, 1.35%
- CC(OC(=O)CN1C(=O)COc2ccccc21)C(=O)NCc1ccc(F)cc1 (centres unmarked) — lower, 1.96%
- Cn1nc(-c2ccc(Cl)cc2)c2cc(C(=O)NC3CC3)sc21 — lower, 7.91%
- CCOc1ccc(N2CC(C(=O)N3CCc4ccccc4C3)CC2=O)cc1 (centres unmarked) — lower, -67.1%
- CC(=NCCC(c1ccccc1)c1ccccc1)c1c(O)n(C)c(=O)n(C)c1=O — lower, 0.314%
- Cc1ccc(C2C3=C(CCCC3=O)Nc3c2c(C)nn3-c2ccccn2)o1 (centres unmarked) — lower, 14.4%
- C=CCn1c(SCC(=O)N2CCN(CCO)CC2)nc2sc3c(c2c1=O)CCC3 — lower, -0.527%
- Cc1ccc2c(c1)N(C(=O)CCC(=O)NCCCN1CCC(Cc3ccccc3)CC1)CCO2 — lower, -78.7%
- Cc1ccc2oc(=O)c3cnn(CC(=O)N4CCCc5ccccc54)c3c2c1 — lower, 4.39%
- CCN(CC(=O)Nc1ccc(OC)cc1)C(=O)c1cc(S(=O)(=O)N2CCOCC2)ccc1N1CCCC1 — lower, 6.36%
- COc1cc(-c2nnc(SCC(=O)NC3CCS(=O)(=O)C3)o2)cc(OC)c1OC (centres unmarked) — lower, 11.8%
- CN(C(=O)/C=C/c1ccc(F)cc1)C1CCCCC1 — lower, 8.85%
- COc1ccccc1NC(=O)N1CCC(NC(=O)C2CCCCC2)CC1 — lower, 13.1%
- COc1ccc(CCN=Cc2ccc(O)cc2)cc1OC — lower, 16.3%
- NS(=O)(=O)c1ccc(NC(=O)COC(=O)COc2ccc(Br)cc2)cc1 — lower, 9.9%
- COc1ccc(OC)c(NC(=O)c2c(NC(=O)CCC(=O)O)sc3c2CCCCC3)c1 — lower, 13.6%
- COc1cccc(OC)c1OCCCCN1CCC(Cc2ccccc2)CC1.O=C(O)C(=O)O — lower, -78.6%
- Cc1sc2ncnc(SCC(=O)NNC(=O)COc3cccc4ccccc34)c2c1C — lower, 4.07%
- CCOc1ccc(NC(=S)N2CCN(S(=O)(=O)c3ccccc3)CC2)cc1 — lower, 2.68%
- CC(=O)NC(=S)Nc1ccc(N2CCOCC2)c(S(=O)(=O)Nc2cc(Cl)ccc2Cl)c1 — lower, 6.2%
